According to the supplement of paper PMC3334620:
Whole data set: some 33,000 sequences, median “E-score (-0.5 to 0.5)” near -0.01, cut for the highest 2% near 0.26. The list shows a part of the results.

Target: Ste12 (UniProt P13574)
Test: PBM E-score (8-mer binding enrichment) (E-score (-0.5 to 0.5)); higher = stronger / more preferred TF binding; most listed sequences are background and not binding sites
Conditions: protein concentration: 200 nM; construct: GST-DNA-binding domain
In short: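 For each ungapped eight-base word taken together with its reverse complement, the Universal PBM Analysis Suite assigned an E-score. Binding data came from GST-tagged yeast transcription factors, applied at about 100-200 nM, on universal all-10-mer Agilent arrays made double-stranded by primer extension. Fluorescent anti-GST marked bound protein, and scans were normalised with masliner.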

Row | Sequence | PBM E-score
1 | AGGAGCAG | -0.189
2 | CATTACTC | 0.0508
3 | CCGCATAG | -0.00181
4 | GCTTAAAC | -0.0138
5 | CTCGCCAA | -0.034
6 | ACCATGTA | 0.0456
7 | ATTTGGTG | 0.16
8 | ATCACCGG | -0.0135
9 | ATTCCGTA | -0.0191
10 | CCTGAGTC | -0.193
11 | GAGAACGC | -0.103
12 | ATGTGCCC | -0.16
13 | GTCATTTA | -0.192
14 | CATGGTGC | -0.0606
15 | AGGAATCG | -0.0451
16 | CCGAGCGG | -0.116
17 | AGCCTCAG | -0.123
18 | CTGAATCC | 0.0117
19 | GGGCGGCA | -0.00298
20 | ACTTAGGG | 0.116
21 | CGGTTTGC | 0.0736
22 | AAAGATTG | 0.0308
23 | GAGTTCAA | -0.0508
24 | CCACATGC | -0.0924
25 | ATTACACA | 0.194

Row | Sequence | PBM E-score
26 | CGTGGTGC | -0.249
27 | ATTGGTGA | 0.0373
28 | GGATGAGA | -0.0151
29 | AGGCGATC | -0.166
30 | AAGATCCC | -0.0527
31 | ACCGCGAT | 0.00413
32 | AGCGACTG | -0.0631
33 | TAAATAGA | -0.0338
34 | ACACAGCA | 0.0338
35 | AAGACTGC | -0.153
36 | GCGGCCGA | -0.00527
37 | CATCGTCC | -0.114
38 | CAGGAGCA | -0.0189
39 | ATTCTGAA | 0.118
40 | CGGTTTGA | 0.0944
41 | ATCACACG | 0.0439
42 | CACCGCGC | -0.037
43 | AAGTTTAG | 0.067
44 | AGGGTTTG | 0.14
45 | ACATAAGA | 0.193
46 | ATTGTCGA | 0.104
47 | AATGCAGG | -0.119
48 | CACATGTC | -0.133
49 | ACACCTTA | -0.0837
50 | ATGCGCTC | 0.0298

Row | Sequence | PBM E-score
51 | TGATTCCA | 0.0417
52 | ATCACGAC | -0.128
53 | AACAATAG | 0.0913
54 | CTGATCAG | -0.0327
55 | GCACTTGA | -0.14
56 | CGTATCAA | 0.088
57 | AGATTCTC | -0.0258
58 | GACAGACC | -0.0447
59 | CAATTCCG | 0.0165
60 | AACAGACA | 0.16
61 | AGATGCAA | -0.0413
62 | AACAGCAG | 0.0314
63 | ACCAGAGT | -0.114
64 | ATTAAAAC | 0.313
65 | GCGCCAAC | 0.0703
66 | CGCGGGAG | -0.025
67 | TCTTCTCA | 0.019
68 | CCCGAAGC | -0.107
69 | TACTGCCA | -0.183
70 | CACTTATG | 0.00871
71 | GACCCAGA | 0.0219
72 | AGAGTCCT | -0.22
73 | GATCCTGC | -0.0331
74 | CCGATGAA | 0.173
75 | TAGCCCGA | 0.0463

Row | Sequence | PBM E-score
76 | CTGGTTCC | -0.11
77 | GCCGGCGC | 0.125
78 | CTTTTTTC | 0.139
79 | AGTGTACC | -0.221
80 | AGGTTGGC | -0.253
81 | GTGGCACA | -0.151
82 | CAGGAGCC | -0.208
83 | AGTGCGCA | 0.122
84 | ACTACGAT | -0.0319
85 | ATGCGCCG | -0.15
86 | GCCTGGAC | -0.0287
87 | AAGGTTTC | 0.148
88 | ACTTATCC | -0.016
89 | AGTTGAGG | 0.0958
90 | ACCTGCTA | 0.0607
91 | CGGAACCC | 0.0647
92 | GAGCTTGA | -0.176
93 | ATTTCACG | 0.122
94 | AGACTAAG | -0.0373
95 | ATTGAATC | 0.0395
96 | AGAGAAGG | -0.185
97 | CGCAGCTC | -0.0841
98 | ATGGGCGA | -0.00581
99 | ACTATGAA | 0.125
100 | AGACAAGG | -0.0552

Row | Sequence | PBM E-score
101 | GTCCGCAA | -0.0225
102 | ATGGCAGG | -0.00832
103 | GGAGTCAC | -0.178
104 | GCCTTTCA | -0.125
105 | TCGTGGCA | -0.0508
106 | GCGCTTAA | 0.136
107 | CGACTTCC | -0.201
108 | CGGCAGCA | -0.0682
109 | CGCTAGAA | 0.0317
110 | ATGGCGGG | 0.0897
111 | GCGTCTAA | 0.126
112 | AAATACTC | 0.0776
113 | AGGTCGCG | -0.228
114 | CGAGAGGC | -0.168
115 | ACCTACCA | -0.0382
116 | AATCAGCG | 0.121
117 | AACGCCGT | -0.106
118 | ACACTGGA | -0.112
119 | GCTGTATA | -0.188
120 | CGACCTGA | 0.0607
121 | GATCCCAA | -0.0221
122 | AAATTCTC | 0.105
123 | GCATGGGA | 0.0202
124 | AAATACCT | 0.116
125 | CCTATTGC | -0.0564

Row | Sequence | PBM E-score
126 | AACGTCTA | -0.189
127 | CCATAACG | 0.147
128 | GGAAAATA | 0.255
129 | GAGCCTGA | -0.0885
130 | AAGGAGGA | -0.177
131 | GAAGGTTA | -0.115
132 | GCCACTGA | -0.0291
133 | CCCTTGAG | -0.0308
134 | ATAACTTC | 0.172
135 | ACCCTCGG | -0.0619
136 | CATACTGA | -0.124
137 | CATTTGTC | 0.185
138 | GTAGAGGA | -0.305
139 | GCCAGAGA | -0.0798
140 | CATGAGGG | -0.0555
141 | ACTAACTG | 0.108
142 | GACATACA | 0.192
143 | AGCTAACG | -0.163
144 | AGTGATAA | 0.0362
145 | AAGATTCG | 0.128
146 | GCTTAAGA | 0.0148
147 | AAAGCAAG | 0.254
148 | CAAGGAAC | 0.13
149 | AGGCCAAA | -0.0294
150 | CTGTCGAA | -0.08

Row | Sequence | PBM E-score
151 | CAATGCTA | -0.0691
152 | CGTTTGCA | 0.0337
153 | CCGCTCGC | 0.207
154 | ATATAAGA | 0.12
155 | ACCCGTTA | 0.0925
156 | AAATAAGA | 0.236
157 | GCAGGACA | -0.11
158 | CCTCGCTA | -0.253
159 | CTGTTACA | 0.378
160 | TCAGCCGA | -0.0569
161 | ACCCATAG | -0.126
162 | AAGACCTC | -0.138
163 | CTCAAGGA | -0.181
164 | AAGCGCTG | -0.00277
165 | CATAGAAC | -0.0408
166 | AGATAACA | 0.223
167 | GTGCTCTA | -0.238
168 | CAGCTAGA | -0.154
169 | AACGTTTG | 0.0498
170 | GAAGATCC | -0.217
171 | CCCGCGAA | 0.171
172 | ATCGTAAG | 0.0728
